Results from PubChem BioAssay AID1159614 (National Center for Advancing Translational Sciences (NCATS), 2016).
Screen size: about 45,000 compounds; about 65 (0.1%) were called active. Calls come from the whole dose curve; as a rule, active = well fitted activation curve with a large enough effect; inconclusive = small, poorly fitted or top-dose-only effect; inactive = no such curve, though single readings can be large or run the other way. This is one part of the list.

Each compound was assayed against Galactocerebrosidase (Homo sapiens) (UniProt P54803) (assay: A Novel Cell-Based Assay to Identify Small Molecules for B -Galactocerebrosidase). Conditions: 145M-Twi-hGALC-G270D cells (Twitcher mouse brain line with human GALC G270D), HMU-beta-Gal fluorescence, 48 h; series mostly up to 57.5 µM; activation: at the top concentration.
Sequence of UniProt P54803 (P54803 whole entry, looked up): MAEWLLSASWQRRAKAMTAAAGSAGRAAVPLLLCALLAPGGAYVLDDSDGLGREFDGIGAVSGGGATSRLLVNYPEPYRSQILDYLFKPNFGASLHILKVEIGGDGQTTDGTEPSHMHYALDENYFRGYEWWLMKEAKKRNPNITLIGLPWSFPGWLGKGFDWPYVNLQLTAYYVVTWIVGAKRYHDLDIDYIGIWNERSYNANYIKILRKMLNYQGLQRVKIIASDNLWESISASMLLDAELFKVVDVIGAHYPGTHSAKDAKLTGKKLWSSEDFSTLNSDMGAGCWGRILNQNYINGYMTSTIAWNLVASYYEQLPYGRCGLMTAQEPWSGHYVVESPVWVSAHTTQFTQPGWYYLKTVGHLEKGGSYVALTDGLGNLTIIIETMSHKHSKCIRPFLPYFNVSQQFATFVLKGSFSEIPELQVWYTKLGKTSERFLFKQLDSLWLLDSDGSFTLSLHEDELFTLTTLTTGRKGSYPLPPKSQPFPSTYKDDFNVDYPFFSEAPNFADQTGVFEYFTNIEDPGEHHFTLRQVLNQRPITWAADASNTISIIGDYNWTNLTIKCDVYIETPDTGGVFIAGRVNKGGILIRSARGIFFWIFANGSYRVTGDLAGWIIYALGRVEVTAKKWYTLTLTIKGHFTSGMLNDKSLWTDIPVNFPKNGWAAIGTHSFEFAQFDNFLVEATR
Procedure, shortened: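 Mutant human GALC (G270D), stably expressed in a Twitcher mouse brain cell line lacking endogenous GALC, is measured in live-treated cells via 6-hexadecanoylamino-4-methylumbelliferyl-β-galactoside hydrolysis (0.1 mM final, pH 5.2) with fluorescent detection.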
Note: 0% is about no effect; nearly all actives have a fitted effect of over 65% in size.

activation, inactive:
CCCN(C(=O)c1nn(-c2ccc(OC)c(Cl)c2)c(=O)c2c1c1ccccc1n2C)c1ccccc1F -16.6%, COc1ccc(NC(=O)c2ccc3c(=O)n4nc(Nc5cc(C)ccc5C)sc4nc3c2)cc1 -23.1%, CCOc1ccccc1CNC(=O)C1CCN(C2=NS(=O)(=O)C(c3ccc(C)c(C)c3)=C2C)CC1 -12%, O=c1c2oc3ccccc3c2n(Cc2cccc(F)c2)c(=O)n1Cc1ccco1 -13.9%, CS(=O)(=O)CCNCc1ccc(-c2ccc3ncnc(Nc4ccc(OCc5cccc(F)c5)c(Cl)c4)c3c2)o1 -23.3%, COc1cccc(NC(=O)c2sc3nc(C)c(C(=O)Nc4ccc(C)cc4C)c(-c4sccc4C)c3c2N)c1 -14.3%, Cc1onc(-c2c(Cl)cccc2Cl)c1C(=O)Cl -15.4%, CC(C)c1ccc2oc(-c3cc(NC(=O)c4cccs4)ccc3Cl)nc2c1 -7.45%, COc1ccc(C(=O)Nc2cc(C(C)C)c(O)c(S(=O)(=O)c3ccc(OC)cc3)c2C)cc1 -9.53%, Cc1ccccc1N1CCN(S(=O)(=O)c2nnc(NC(=O)c3ccccc3)s2)CC1 -6.06%, c1ccc(Cc2nnc(SCc3nc(-c4cccs4)no3)n2-c2ccccc2)cc1 -8.59%, COc1ccc(S(=O)(=O)c2c(Nc3ccc(F)cc3)sc(C(=O)c3ccc(C)cc3C)c2N)cc1 -16.7%, COc1ccccc1Cn1ccn(Cc2c(F)cccc2Cl)c(=O)c1=O -5.51%, COC(=O)c1ccccc1NC(=O)CCC(=O)N1CCOc2ccccc21 -7.45%, CCOC(=O)c1c(-c2ccccc2)csc1NC(=O)c1nc(S(=O)(=O)CC)ncc1Cl -23.4%, COc1ccc(C2=CC(c3ccccc3F)n3ncc(C(=O)Nc4ccc(C)cc4)c3N2)cc1 (stereo not given) -11.6%, CCN(CC)C(=O)c1sc(NC(=O)C(C)Sc2nc(-c3ccccc3)cc(C(F)(F)F)n2)c(C(=O)OC)c1C (stereo not given) -7.73%, CCC(=O)Nc1ccc(S(=O)(=O)NCc2ccc3c(c2)CCN3C(=O)c2ccc(C)cc2)cc1 -1.04%, CCN(c1ccccc1)c1nnc(NC(=O)Nc2cccc(Cl)c2C)s1 -10.8%, CC(=O)c1ccc(NC(=O)Nc2nnc(N3CCCC(C)C3)s2)cc1 (stereo not given) -46.1%, CSc1ccc(-c2nc3ncccn3c2Nc2ccc(C)c(C)c2)cc1 -9.91%, Nc1cc(=O)nc(SCC(=O)Nc2cccc(Cl)c2)n1CCc1ccccc1 -6.8%, Cc1cccc(-c2c3c(=O)n(C)c(=O)n(C)c3cn2-c2cc(N)c(Cl)cc2Cl)c1 -16.9%, CN(C)c1oc(/C=C/c2ccc(F)cc2)nc1C#N -11.9%, CCOCCCNC(=O)c1cc2c(-c3ccc(OC)c(OC)c3)nn(C)c2s1 -15.4%, COCCN1CCc2nc(SCC(=O)Nc3ccc(Br)cc3)[nH]c(=O)c2C1 -8.92%, Cc1c2cnn(CC(=O)NCc3ccc(F)cc3)c(=O)c2c(C)n1Cc1ccccc1F -11.9%, CC(C)(C)OC(=O)N1CCC(c2c(C(=O)NCc3cccs3)cnn2-c2ccc(F)cc2F)CC1 -28.1%, COc1ccc(Cl)cc1Nc1ncnc2c1c(-c1ccccc1)cn2-c1ccccc1 14%, Cc1noc(/C=C/N(C)C)c1S(=O)(=O)N1CCCC(C(=O)Nc2ccc(F)cc2F)C1 (stereo not given) -11%, NC(=O)C1(N2CCCCC2)CCN(C(=O)Nc2ccc(C(F)(F)F)cc2)CC1 -4.46%, Cc1ccc(NCc2ccccc2-c2nnc(-c3ccccc3Cl)o2)c(C)c1 -9.43%, CCS(=O)(=O)c1ncc(Cl)c(C(=O)N2CCN(c3cccc(Cl)c3)CC2)n1 -11.3%, [O-][n+]1ccccc1SSc1cccc[n+]1[O-] -8.19% [at 23.8 µM], Cc1ccc(CNS(=O)(=O)c2cc(C(=O)Nc3cccc(C(F)(F)F)c3)ccc2F)cc1 -23.4%, Cc1ccc2c(c1)c1c(c(=O)n(-c3ccccc3C)c(=O)n1CC(=O)NCc1ccccc1)n2C -7.39%, COc1ccc(CC(=O)NCc2ccc3c(c2)CCN3C(=O)c2ccc(Cl)cc2)cc1OC -8.59%, CN1CCCN=C1COC(=O)C(O)(c1ccccc1)C1CCCCC1 (stereo not given) -5.72%, CCOC(=O)c1ccc(N2C(=O)c3n[nH]c(-c4cccs4)c3C2c2ccc(C(C)C)cc2)cc1 (stereo not given) 2.15%, O=c1cc(-c2ccccc2)c2cc(Cl)c3c(c2o1)CN(Cc1ccccc1)CO3 -21.8%, COc1ccccc1-c1cc(C(F)(F)F)nc(S(=O)(=O)CCCC(=O)Nc2cc(OC)c(OC)c(OC)c2)n1 -3.05%, Cc1cc(C)c2c(=O)cc(CSc3nnc(COc4ccccc4C)n3C)[nH]c2c1 -8.03%, COc1ccc(N(Cc2cccs2)C(=O)Nc2ccccc2)cc1 -4.93%, COc1ccc(OC)c(NC(=O)CN2C(=O)c3ccccc3Sc3ccc(C(=O)N4CCCC4)cc32)c1 -5.19%, Cc1cc(-c2ccc(C)c(S(=O)(=O)N(C)c3ccc(C)c(C)c3)c2)on1 -11%, COc1ccccc1NC(=O)Cn1c(=O)n(Cc2ccco2)c(=O)c2cccnc21 -21.4%, CCOC(=O)c1c(Oc2ccc(OC)cc2)nnc(-c2ccccc2)c1-c1ccccc1 -10.6%, Cc1ccc(OCCCn2c(CCNC(=O)C3CCCCC3)nc3ccccc32)c(C)c1 -3.37%, CN(C(=O)C(=O)Nc1ccc2nc3n(c(=O)c2c1)CCCCC3)c1cccc(C(F)(F)F)c1 -3.67%, CCc1ccc(NC(=O)Cn2c(=O)oc3cc(S(=O)(=O)N4CCCCCC4)ccc32)cc1 -8.17%, CC(C)Sc1ncc(Cl)c(C(=O)Nc2nnc(C(C)C)s2)n1 -17%, Cc1onc(-c2ccc(F)cc2F)c1C(=O)Nc1cccc(C(F)(F)F)c1 10.3%, O=C(Nc1ccccc1)c1cccc(S(=O)(=O)Nc2cccc(F)c2)c1 -13.3%, COc1cccc(-c2ccc3c(N)c(C(=O)NCc4ccc(Cl)cc4)sc3n2)c1 8.84%, CCc1ccc(CNC(=O)c2cc(-c3ccc(Br)s3)nc3ccccc23)cc1 -2.93%, Cc1ccc(S(=O)(=O)N2CCOCC2)cc1C(=O)Nc1ccccc1C(=O)O -9.47%, Cc1ccc2onc(CC(=O)N(C)c3ccccc3)c2c1 -8.59%, COc1ccc(CCNC(=O)c2c(C)nn(-c3ccc(F)cc3)c2-n2cccc2)cc1OC -23.8%, O=S(=O)(Nc1ccc2nc(-c3cccc(Cl)c3)oc2c1)c1ccccc1 -31.7%, Cc1cccc(N2CCN(C3(c4ccccc4)C(=O)c4ccccc4C3=O)CC2)c1C -20.6%
